# Reference: PubChem BioAssay AID504332 (National Center for Advancing Translational Sciences (NCATS), 2011)
# Out of some 350,000 compounds screened, about 31,000 (8.9%) were called active. This list was built around the results that the source calls inconclusive (neither active nor inactive); the mix of calls is not that of the screen. Calls come from the whole dose curve; as a rule, active = well fitted inhibition curve with a large enough effect; inconclusive = small, poorly fitted or top-dose-only effect; inactive = no such curve, though single readings can be large or run the other way. A potency beside an inconclusive call is a rough fit, not a confirmed value.
# Target: Histone-lysine N-methyltransferase EHMT2 (Homo sapiens) (UniProt Q96KQ7)
# Sequence of UniProt Q96KQ7 (Q96KQ7 whole entry, looked up): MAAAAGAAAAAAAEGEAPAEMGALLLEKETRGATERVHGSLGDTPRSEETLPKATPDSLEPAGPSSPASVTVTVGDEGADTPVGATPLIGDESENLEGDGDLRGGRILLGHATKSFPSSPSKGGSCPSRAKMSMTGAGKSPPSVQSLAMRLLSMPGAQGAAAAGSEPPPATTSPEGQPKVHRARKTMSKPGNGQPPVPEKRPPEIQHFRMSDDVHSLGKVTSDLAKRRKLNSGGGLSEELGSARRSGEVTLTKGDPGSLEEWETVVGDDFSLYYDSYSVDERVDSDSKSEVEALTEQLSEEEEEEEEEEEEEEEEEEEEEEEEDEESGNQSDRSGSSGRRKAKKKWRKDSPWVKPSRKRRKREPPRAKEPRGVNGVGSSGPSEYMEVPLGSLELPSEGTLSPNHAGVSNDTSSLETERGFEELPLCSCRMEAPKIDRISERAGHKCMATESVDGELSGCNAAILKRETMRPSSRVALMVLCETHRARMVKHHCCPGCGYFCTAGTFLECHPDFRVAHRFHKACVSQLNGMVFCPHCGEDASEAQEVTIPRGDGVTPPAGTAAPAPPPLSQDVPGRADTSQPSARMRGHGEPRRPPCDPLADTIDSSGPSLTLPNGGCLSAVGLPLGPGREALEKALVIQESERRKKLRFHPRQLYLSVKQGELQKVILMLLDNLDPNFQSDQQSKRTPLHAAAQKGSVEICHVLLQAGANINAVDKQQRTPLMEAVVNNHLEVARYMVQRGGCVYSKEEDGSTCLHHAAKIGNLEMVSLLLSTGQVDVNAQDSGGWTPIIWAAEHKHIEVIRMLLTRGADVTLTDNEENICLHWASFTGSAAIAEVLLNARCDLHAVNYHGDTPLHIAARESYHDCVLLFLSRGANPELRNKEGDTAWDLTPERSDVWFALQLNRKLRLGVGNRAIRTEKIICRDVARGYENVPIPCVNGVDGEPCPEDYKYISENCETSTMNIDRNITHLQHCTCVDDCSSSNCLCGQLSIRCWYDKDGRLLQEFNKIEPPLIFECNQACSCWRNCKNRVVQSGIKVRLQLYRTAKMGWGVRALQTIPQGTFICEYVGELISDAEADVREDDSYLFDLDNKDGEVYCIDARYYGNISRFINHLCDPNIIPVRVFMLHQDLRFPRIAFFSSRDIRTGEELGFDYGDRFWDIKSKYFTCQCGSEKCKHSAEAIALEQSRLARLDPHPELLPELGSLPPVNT
# Test: qHTS Assay for Inhibitors of Histone Lysine Methyltransferase G9a; note: nearly all actives have a fitted effect of over 75% in size
# Details: G9a H3K9 monomethylation, AlphaScreen, 2 h; activity, negative = inhibition: at 59 µM (top of the series) unless noted
# Summary of the method: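 Chemiluminescent proximity detection of H3K9 monomethylation, read after 10 min bead incubation in the dark. Reaction: 20 nM G9a, 500 nM biotin-H3K9 peptide, 20 uM SAM cofactor, 2 h, room temperature, following 15 min enzyme-compound preincubation.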
# % is set by controls: 0 for no effect and ±100 for the full control effect; potency is the fitted concentration of half-maximal effect; tags give direction and shape of the fitted curve.
Structure (SMILES),Potency,"activity, negative = inhibition"
Cc1cc2c(cc1C)[n+](C)cn2CC(O)COCC1CC=CCC1 (stereo not given),active: 39.8 µM,–
CN(C)S(=O)(=O)c1ccc(C(=O)Nc2cc(S(=O)(=O)Nc3ccccc3Cl)ccc2N2CCCCC2)cc1,"inconclusive: 31.6 µM [inhibitor, single point]",–
O=S(=O)(c1ccccc1)N1CCC[C@@]2(CCN(Cc3ccccc3)C2)C1,–,inactive: -3.53% [at 12.7 µM]
CCOc1cc(/C=C2/NC(=O)NC2=O)cc(Br)c1OCc1ccc(C(=O)O)cc1,active: 44.7 µM,–
CCOC(=O)c1ccc(NC(=O)CSc2nc3ccccc3c(=O)n2CCNC(C)=O)cc1,inactive,–
CCc1ccc(NC(=O)CN2C(=O)C(c3ccc(F)cc3)=NC2(C)C)cc1,inactive,–
CN(C)c1nnnn1-c1ccccc1Oc1ncc(C(F)(F)F)cc1Cl,inactive,–
O=C(C1CCCN1S(=O)(=O)c1cccc2cccnc12)N1CCc2ccccc2C1 (stereo not given),"inconclusive: 89.1 µM [inhibitor, single point]",–
COC(=O)c1cc(OC)c(OC)cc1NCC(=O)Nc1ccc(OC)c(OC)c1,"inconclusive: 31.6 µM [inhibitor, single point]",–
COc1ccccc1CNC(=O)c1cccc(N(C)C)c1,active: 8.91 µM,–
COCCN(C(=O)CSc1nnc(-c2ccc(C)c(C)c2)o1)c1c(N)n(CC(C)C)c(=O)[nH]c1=O,active: 79.4 µM,–
COc1ccc(/C(N)=N/OC(=O)C2CCCCC2)cc1,"inconclusive: 89.1 µM [inhibitor, single point]",–
COCc1[nH]nc2c1C1(CCC3(CC1)OCCO3)C(C#N)=C(N)O2,"inconclusive: 89.1 µM [inhibitor, single point]",–
N=c1nc(SCCC(=O)O)ss1,active: 11.2 µM,–
COc1ccc(OC)c(NC(=O)CSc2cn(CC(=O)N3CCCCCC3)c3ccccc23)c1,"inconclusive: 25.1 µM [inhibitor, partial curve, poor fit]",–
Cc1ccc(S(=O)(=O)N2CCCC2)cc1[N+](=O)[O-],inactive,–
Cc1ccc2c(=O)oc(N(C)C)nc2c1,"inconclusive: 31.6 µM [inhibitor, single point]",–
O=C(NCc1ccccc1)C1=C[C@@H](c2coc3ccccc3c2=O)C[C@@H](OCCCCO)O1,–,inactive: 40.1% [at 12.7 µM]
CCCN(CCC)CCNC(=O)Cn1cc2c(n1)-c1c(oc(C(=O)N3CCCC3)c1C)CC2,"inconclusive: 20 µM [inhibitor, partial curve, poor fit]",–
CCCCC(=O)NC(c1ccc(OC)c(OC)c1)c1c(O)ccc2ccccc12 (stereo not given),"inconclusive: 11.2 µM [inhibitor, full curve]",–
O=C(N/N=C/c1ccccn1)c1cccc([N+](=O)[O-])c1,"inconclusive: 0.708 µM [inhibitor, full curve, poor fit]",–
COc1ccc(N(CCCN2C(=O)c3cccc4cccc(c34)C2=O)C(=O)c2ccncc2)cc1,"inconclusive: 39.8 µM [inhibitor, partial curve, poor fit]",–
CCCn1c(C2CCCN2c2nc(-c3cccc(Br)c3)cs2)nc2cc(Cl)c(Cl)cc21 (stereo not given),"inconclusive: 89.1 µM [inhibitor, single point]",–

Structure (SMILES),Potency,"activity, negative = inhibition"
CCSc1ncc(Cl)c(C(=O)N(Cc2ccc(N(C)C)cc2)Cc2ccco2)n1,active: 12.6 µM,–
CC(=O)N1CCC2(CC1)NC(=O)N(c1ccccc1)N2,"inconclusive: 1.58 µM [inhibitor, full curve, poor fit]",–
O=C(O)c1ccc(OCCOc2ccccc2)cc1,inactive,–
COc1ccc(N(CC(=O)NCCC2=CCCCC2)S(=O)(=O)c2ccccc2)c(OC)c1,"inconclusive: 3.55 µM [inhibitor, partial curve, poor fit]",–
Cc1ccc(S(=O)(=O)N2CCN(Cc3ccccc3)CC2)cc1,inactive,–
Cc1cc(Cl)ccc1OCC(=O)N1CCCN(C(=O)COc2ccc(Cl)cc2C)CC1,"inconclusive: 35.5 µM [inhibitor, single point]",–
CCOc1ccc2nc(NC(=O)CN3C(=O)NC4(CCCC4)C3=O)sc2c1,active: 50.1 µM,–
COc1ccc(N2CCN(C(=O)c3ccc(NS(=O)(=O)c4ccccc4)cc3)CC2)cc1,active: 20 µM,–
Cc1cc(C)nc(Nc2n[nH]c(-c3ccccc3C)n2)n1,"inconclusive: 50.1 µM [inhibitor, partial curve, poor fit]",–
O=C(CSc1nc(Nc2ccccc2)nc(N2CCOCC2)n1)Nc1cccc([N+](=O)[O-])c1,"inconclusive: 50.1 µM [inhibitor, single point]",–
CCOC(=O)c1nnn(-c2nonc2N)c1-c1ccc(OC)cc1,"inconclusive: 35.5 µM [inhibitor, partial curve, poor fit]",–
Cc1occc1-c1nnc(SCC(=O)c2ccc(F)cc2)n1Cc1ccco1,active: 10 µM,–
O=C(/C=C/c1ccc(S(=O)(=O)N2CCOCC2)cc1)N1CCN(c2ccc(F)cc2)CC1,"inconclusive: 70.8 µM [inhibitor, partial curve, poor fit]",–
COc1cccc2c(N/N=C/c3ccc(O)c(O)c3)cc(C)nc12,active: 35.5 µM,–
CCOC(=O)c1ccccc1N/C=C1\CCCC1=O,"inconclusive: 15.8 µM [inhibitor, partial curve, poor fit]",–
CC12CCC(C(=O)N3CCC(Cc4ccccc4)CC3)(C(=O)C1=O)C2(C)C (stereo not given),inactive,–
CCOC(=O)CNC(=O)Cn1cnc2sc(C)c(S(=O)(=O)N3CCC(C)CC3)c2c1=O,"inconclusive: 39.8 µM [inhibitor, single point]",–
Cc1ccc(-c2nc(-c3cc4cccc(OCc5ccc(F)cc5)c4oc3=O)no2)cc1,inactive,–
CC(=O)[C@@H]1[C@@H]2C(=O)N(c3ccccc3F)C(=O)[C@@H]2[C@H]2c3ccccc3C=NN12,active: 50.1 µM,–
Cc1cccc(C)c1NC(=O)/C(C#N)=C/c1ccc(-c2ccc(C(=O)O)cc2)o1,active: 44.7 µM,–
CC(OCC(O)CNCC1COc2ccccc2O1)c1ccc(Cl)cc1 (stereo not given),active: 10 µM,–
Cn1nccc1C(=O)Nc1ccc2c(c1)OCCO2,inactive,–
